Data reported in publication PMC4336329 (PLoS ONE, 2015).
In all, about 310,000 compounds went through this assay and about 14,000 (4.5%) showed an effect of 50% or more. Effects have a minus sign here. The list shows a part of the results.

biological target: human ether-à-go-go-related gene (hERG) potassium channel (human, UniProt Q12809); experiment: primary screen, population patch clamp on CHO cells stably expressing hERG
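Further: peak tail current of the secondary pulse compared with the same well before compound.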

Sequence of human ether-à-go-go-related gene (hERG) potassium channel (Q12809 whole entry, looked up): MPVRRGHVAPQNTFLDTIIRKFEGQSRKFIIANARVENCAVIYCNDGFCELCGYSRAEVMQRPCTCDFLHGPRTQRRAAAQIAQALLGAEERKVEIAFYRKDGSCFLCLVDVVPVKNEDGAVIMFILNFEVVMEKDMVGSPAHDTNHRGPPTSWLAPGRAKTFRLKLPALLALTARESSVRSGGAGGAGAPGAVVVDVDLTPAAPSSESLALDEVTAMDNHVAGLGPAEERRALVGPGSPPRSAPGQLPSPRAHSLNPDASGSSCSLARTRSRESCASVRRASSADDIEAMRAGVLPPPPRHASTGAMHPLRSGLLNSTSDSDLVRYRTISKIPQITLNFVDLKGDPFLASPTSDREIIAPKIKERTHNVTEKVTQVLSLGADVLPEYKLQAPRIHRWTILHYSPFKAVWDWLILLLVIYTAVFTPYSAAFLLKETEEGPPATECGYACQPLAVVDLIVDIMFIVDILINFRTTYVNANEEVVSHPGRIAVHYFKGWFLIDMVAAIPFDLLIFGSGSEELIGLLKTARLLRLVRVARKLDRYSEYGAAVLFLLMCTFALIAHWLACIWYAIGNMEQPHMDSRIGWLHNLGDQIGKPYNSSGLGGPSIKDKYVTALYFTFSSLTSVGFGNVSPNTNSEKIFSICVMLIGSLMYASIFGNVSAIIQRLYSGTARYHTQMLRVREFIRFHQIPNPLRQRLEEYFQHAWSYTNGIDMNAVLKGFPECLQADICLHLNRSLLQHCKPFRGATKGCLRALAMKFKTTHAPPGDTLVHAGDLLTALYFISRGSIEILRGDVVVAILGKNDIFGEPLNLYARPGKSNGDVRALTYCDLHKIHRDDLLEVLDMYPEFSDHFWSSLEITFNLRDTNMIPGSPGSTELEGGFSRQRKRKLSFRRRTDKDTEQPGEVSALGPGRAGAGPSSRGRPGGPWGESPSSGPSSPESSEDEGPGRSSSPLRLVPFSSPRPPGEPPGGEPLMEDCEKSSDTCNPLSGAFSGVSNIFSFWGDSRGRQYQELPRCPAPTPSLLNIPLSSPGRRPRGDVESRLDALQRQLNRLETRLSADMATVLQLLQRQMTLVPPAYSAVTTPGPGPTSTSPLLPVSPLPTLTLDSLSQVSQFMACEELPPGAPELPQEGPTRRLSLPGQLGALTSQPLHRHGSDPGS

Row | Compound | hERG current change (%, negative = inhibition) at 10uM [%]
1 | COc1ccc(OC)c(-c2[nH]nc3c2C(c2ccco2)C(C#N)=C(N)O3)c1 (centres unmarked) | -11.7
2 | COc1ccc(N(CC(C)C)S(=O)(=O)c2nnc(NC(=O)c3ccco3)s2)cc1 | 19.4
3 | COCc1cc(=O)[nH]c(SCC(=O)c2ccccc2)n1 | 9.25
4 | CCOc1cc(/C=N/NC(N)=O)cc(Br)c1OCc1ccccc1F | 10.9
5 | Cc1ccc(S(=O)(=O)CCN2CCC(O)(c3ccccc3)CC2)cc1 | 3.46
6 | Cn1cnnc1SCC(=O)NNC(=O)COc1ccc(Cl)cc1 | 15.9
7 | CC(=O)NC(c1cccc([N+](=O)[O-])c1)c1ccc2cccnc2c1O (centres unmarked) | 9.13
8 | Cc1c(NC(=O)COC(=O)c2ccc(S(=O)(=O)N3CCOCC3)cc2)c(=O)n(-c2ccccc2)n1C | 9.3
9 | Br.Cc1c(Nc2scc(-c3ccccc3)[n+]2-c2ccccc2)c(=O)n(-c2ccccc2)n1C | -32
10 | CCOC(=O)C1CCN(C(=O)C(CC)c2ccccc2)CC1 (centres unmarked) | 0.948
11 | COc1ccc(NC(=S)NC(C)c2ccncc2)cc1OC (centres unmarked) | -6.54
12 | COc1ccc2c(CCNC(N)=S)c[nH]c2c1 | 8.29
13 | O=[N+]([O-])c1ccc(N2CCCC2)c2ncccc12 | 8.6
14 | CCc1nc(SCC(=O)N2c3ccccc3Sc3ccccc32)c2ccccc2n1 | 5
15 | COc1cc(CNc2ccc3c(c2)OCCO3)ccc1OCC(N)=O | 14.2
16 | CC1(C)CN(c2ccc(F)cc2)C1=O | 22.4
17 | CCOC(=O)[C@@H](C)N(Cc1ccc(OC)cc1)S(=O)(=O)N(Cc1ccccc1)[C@H](C(=O)OC)C(C)C | 15.3
18 | CCOc1ccccc1NC(=O)COC(=O)CSc1ccc(Cl)cc1 | 21.2
19 | O=c1c2[nH]c3ccc(Br)cc3c2ncn1Cc1ccncc1 | -4.79
20 | Nc1nc(Cl)nc2c1ncn2[C@@H]1O[C@H](CO)[C@@H](O)[C@H]1O | -0.00462
21 | CCc1cc(=O)oc2c3c(cc(OCC(=O)NCCN4CCOCC4)c12)OC(C)(C)CC3 | -19.3
22 | CC(CCc1ccccc1)NC(=O)COC(=O)C(CCC(N)=O)NC(=O)c1ccc(F)cc1 (centres unmarked) | -12.2

Row | Compound | hERG current change (%, negative = inhibition) at 10uM [%]
23 | CCOC(=O)C1(CC2CCCCO2)CCN(S(=O)(=O)c2c(C)nn(C)c2C)CC1 (centres unmarked) | 7.49
24 | COC(CNC(=O)c1ccc2nc(-c3ccccc3)c(-c3ccccc3)nc2c1)OC | 1.32
25 | COc1ccc(NCc2cccnc2)cc1 | 27.3
26 | CCCCc1cc(O)c(CCCC)c(O)c1 | -34.1
27 | CC(NC(=O)COC(=O)C1CCN(c2ccc(C(F)(F)F)cn2)CC1)c1ccc(Br)cc1 (centres unmarked) | 7.76
28 | COc1ccc(C(C2C(=O)CC(C)(C)CC2=O)C2C(=O)CC(C)(C)CC2=O)cc1 | 2.75
29 | COCCn1nnnc1SCC(=O)Nc1ccc2c(c1)OCO2 | 0.201
30 | COc1ccc(CNC(=O)C(C)Sc2ccc(C)cc2)cc1 (centres unmarked) | 3.65
31 | CN(C(=O)Cc1c(C(=O)O)n(C)c2ccccc12)c1cccc(C(F)(F)F)c1 | 23
32 | Cc1c(NC(=O)CSc2ccccc2Cl)c(=O)n(-c2ccccc2)n1C | -12.3
33 | CCOc1ccccc1CNCCNC(=O)c1nonc1N.Cl | -13.5
34 | CCN(Cc1ccccc1)C(c1ccc(C(F)(F)F)cc1)c1nnnn1C(C)(C)C (centres unmarked) | 6.31
35 | COc1cccc(CNC(=O)CC(NC(C)=O)c2ccccc2)c1 (centres unmarked) | 16.2
36 | CCCC(=O)Nc1ccc(C2C(=O)c3ccccc3C2=O)cc1 | 25.3
37 | Cc1c(C)n2c(SCC(=O)N3CCOCC3)nnc2[nH]c1=O | -12.7
38 | COc1ccc(C(=O)NCCCN2CCOCC2)cc1OC | -8.39
39 | CCN(CC(=O)Nc1ccccc1OC)CC(=O)Nc1c(Cl)ccc(C)c1Cl | 0.177
40 | CCOC(=O)c1ccc(N2C(=O)C3CCCN3C2=S)cc1 (centres unmarked) | -5.27
41 | Cc1cccc(N(Cc2cc3ccc(C)cc3[nH]c2=O)S(=O)(=O)c2ccccc2)c1 | 15.1
42 | COCCNC(=O)C1CCN(C(=O)c2cc3sccc3n2Cc2ccc(F)cc2)CC1 | -15.6
43 | CCSc1nnc(-c2cccc(S(=O)(=O)N(C)C)c2)n1-c1cc(OC)ccc1OC | -49.8
44 | COc1ccc(C(CNC(=O)c2ccc(S(=O)(=O)N3CCCC3)cc2)N(C)C)cc1OC (centres unmarked) | -0.631
